In a compilation of properties of binary mixtures (doi:10.1021/acs.jpcb.7b06452):
The densities may have been worked out from excess volumes.

Assay: xn = mol fraction of the nth substance listed
Settings: 101 kPa

CC(=O)[O-].CCCC[P+](CCCC)(CCCC)CCCC + CC(=O)[O-].CCCC[n+]1ccn(C)c1
mass density [kg/m3]
Settings | 313.15 K | 323.15 K | 333.15 K | 343.15 K | 353.15 K
x2 = 0 | – | – | 916.4 | 910.4 | 904.5
x2 = 0.5018 | 968 | – | 956.3 | 950.5 | 944.7
x2 = 0.751 | – | 993.1 | 987.2 | 981.3 | 975.5

CCCC[n+]1ccn(C)c1.O=S(=O)([N-]S(=O)(=O)C(F)(F)F)C(F)(F)F + CC(=O)[O-].CCCC[n+]1ccn(C)c1
x2 = 0
Settings | mass density [kg/m3]
293.15 K | 1441.2
313.15 K | 1422.1
323.15 K | 1412.6
333.15 K | 1403.2
343.15 K | 1393.9

CC(=O)[O-].CCCC[n+]1ccn(C)c1 + CCCC[n+]1ccn(C)c1.O=S(=O)([N-]S(=O)(=O)C(F)(F)F)C(F)(F)F
mass density [kg/m3]
Settings | 293.15 K | 298.15 K | 303.15 K | 313.15 K | 323.15 K | 333.15 K | 343.15 K | 353.15 K
x1 = 0.2512 | 1370.3 | 1365.8 | 1361.3 | 1352.3 | 1343.5 | 1334.6 | 1325.9 | 1317.2
x1 = 0.5001 | 1286.2 | 1282.1 | – | 1270 | 1262 | 1254 | 1246.1 | 1238.2
x1 = 0.7497 | 1183.7 | 1180.1 | – | 1169.2 | – | 1154.9 | 1147.9 | 1140.9
